Measured values published in PubChem BioAssay AID504832 (National Center for Advancing Translational Sciences (NCATS), 2011).
Among all 310,000 compounds or so, about 18,000 (5.8%) were called active. The inconclusive results got no clear call from the source; some entries with a clear call stand among them for comparison. The call rests on the fitted dose curve; in most records, active means well fitted inhibition curve with a large enough effect; inconclusive means small, poorly fitted or top-dose-only effect, or another doubt; inactive means no such curve, though single readings can be large or run the other way. No potency is given beside an inconclusive call; the fits are too rough.

Experiment: Primary qHTS for delayed death inhibitors of the malarial parasite plastid, 48 hour incubation
Details: P. falciparum luciferase growth in erythrocytes; series mostly up to 28.7 µM
Method in brief: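 A one-generation exposure of luciferase-tagged malaria parasites in RPMI 1640/Albumax erythrocyte culture, 37 C and 5% CO2. Inhibition is inferred from decreased luminescence after adding detection reagent.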
Potency means the concentration at half of the fitted maximal effect; tags describe the fitted curve by direction and shape.

Structure (SMILES)	Potency
N#Cc1c(NC(=S)NC(=O)Cc2cccs2)sc2c1CCCCC2	inactive
CCC(C)(C)NC(=O)C(c1ccncc1)N(Cc1cccs1)C(=O)Cn1nnc2ccccc21 (configuration not stated)	inconclusive [inhibitor, partial curve, poor fit]
O=C(NCCc1ccccc1)c1ccc(CS(=O)(=O)c2ccc(Cl)cc2)o1	inconclusive [inhibitor, partial curve, poor fit]
CCn1c(=S)sc2c(=O)n(-c3ccccc3)c(SC)nc21	inconclusive [inhibitor, partial curve]
CCCCn1c(N)c(N(CCOC)C(=O)CSc2nnc(-c3ccc(C(C)(C)C)cc3)n2N)c(=O)[nH]c1=O	inconclusive [inhibitor, full curve, poor fit]
CCN(CC)S(=O)(=O)c1ccc(OC)c(NC(=O)c2ccc(N3CCCC3=O)cc2)c1	inconclusive [inhibitor, single point]
CCCC(=O)Nc1ccc2nc(SCC(=O)Nc3ccc(N4CCOCC4)c(Cl)c3)sc2c1	inconclusive [inhibitor, partial curve, poor fit]
CNC(=O)c1c(NC(=O)c2ccc(S(=O)(=O)N(C)c3ccccc3)cc2)sc2c1CCN(C(C)C)C2	active: 0.586 µM
COc1ccc(C(O)(CCc2ccccc2)CCN2CCCCC2)cc1 (configuration not stated)	inconclusive [inhibitor, partial curve]
CCc1ccc(N(C(=O)c2csnn2)C(C(=O)NC2CCCC2)c2cccnc2)cc1 (configuration not stated)	inconclusive [inhibitor, single point]
O=C(CSc1cn(CCNC(=O)c2cccs2)c2ccccc12)NC1CCCCC1	inconclusive [inhibitor, partial curve, poor fit]
CC1CC(C)(C)n2c(O)c(N=NC(N)=S)c3cccc1c32 (configuration not stated)	inconclusive [inhibitor, single point]
CCn1c(Cc2ccccc2)nnc1SCC(=O)c1cccc([N+](=O)[O-])c1	inconclusive [inhibitor, single point]
O=C(NC1CC2CCCC(C1)N2S(=O)(=O)c1ccccc1)c1ccco1 (configuration not stated)	inconclusive [inhibitor, single point]
OCCC1CN(C/C=C/c2ccco2)CCN1Cc1ccccc1 (configuration not stated)	inconclusive [inhibitor, single point]
COCCNC(=O)CCCCCN1C(=O)CCC1=O	inconclusive [inhibitor, partial curve, poor fit]
COC(=O)CCn1nnc(-c2cccs2)n1	inactive
O=C(CSc1nc(-c2ccco2)cc(C(F)(F)F)n1)N1CCN(c2ccc(Cl)cc2)CC1	inconclusive [inhibitor, partial curve]
CSCc1ccc(C(=O)NC2CC(C)(C)Cc3c2cnn3-c2ccc(F)cc2)o1 (configuration not stated)	inconclusive [inhibitor, partial curve, poor fit]
CC(C)C(=O)n1nc(-c2cccnc2)nc1NCc1cccs1	inactive
CN1CCN(C(CNS(=O)(=O)c2ccc(Br)cc2)c2ccc3c(c2)OCO3)CC1 (configuration not stated)	inconclusive [inhibitor, single point]

Structure (SMILES)	Potency
CCCCCCOC(=O)c1ccc(NC(=O)c2cc(OC)c(OC)c(OC)c2Br)cc1	inconclusive [inhibitor, single point]
CCOC(=O)C1=C[C@]2(CC)CCCN3CCc4c(n1c1ccccc41)[C@@H]32	active: 5.22 µM
CC(C)CC(c1nnnn1Cc1cccs1)N1CCN(c2nc3ccccc3s2)CC1 (configuration not stated)	active: 11.7 µM
COC(=O)Nc1ccc(S(=O)(=O)Nc2ccc(O)cc2)cc1	inconclusive [inhibitor, single point]
COc1ccccc1CCN1CCCC(CN(C)C(=O)CCC(=O)N(C)C)C1 (configuration not stated)	inactive
Nc1c(Cl)cc(C2=NCCn3nc4ccccc4c32)cc1Cl	inconclusive [inhibitor, single point]
O=C(Nc1ccccc1)O/N=C1\CCCCC1c1ccc([N+](=O)[O-])cc1[N+](=O)[O-] (configuration not stated)	inconclusive [inhibitor, single point]
c1ccc(CNc2nc3ccccc3n2CCN2CCOCC2)nc1	inconclusive [inhibitor, full curve, poor fit]
CCc1ccc(OCCCC(=O)Nc2nccs2)cc1	inconclusive [inhibitor, single point]
Cc1noc(C)c1COC(=O)c1ccccc1NC(=O)c1ccco1	inconclusive [inhibitor, single point]
OC(CN1CCNCC1)Cn1c2ccccc2c2ccccc21 (configuration not stated)	inconclusive [inhibitor, single point]
COc1ccc(NC(=O)CN(C)CC(=O)NCC2CCCCC2)cc1	inconclusive [inhibitor, single point]
Cc1ccc(S(=O)(=O)N2CCCC2C(=O)N(C)Cc2cccs2)cc1 (configuration not stated)	inconclusive [inhibitor, partial curve, poor fit]
Cc1cc([N+](=O)[O-])c(C)cc1-c1ccc(/C=N/NC(=O)c2cccnc2)o1	inconclusive [inhibitor, single point]
Cc1cc(N2CCN(C)CC2)nc2ccc(NC(=S)N3CCCCC3)cc12	active: 3.29 µM
CCN1CCN(c2cc(C)c3cc(NC(=S)NCCCN4CCc5ccccc5C4)ccc3n2)CC1	active: 7.38 µM
Cc1[nH]n(-c2ncc(-c3ccccc3)s2)c(=O)c1C(c1ccc(Br)cc1)C(C#N)C#N (configuration not stated)	inactive
C=C1CC2C=C(NC(C)=O)CC(C1)C2 (configuration not stated)	inactive
Nc1ccc(N2CCCCC2)c(S(=O)(=O)Nc2ccc(Cl)cc2)c1	inconclusive [inhibitor, single point]
CCOC(=O)CC1COCCN1C(=O)c1cc(COc2ccc(F)c(F)c2)on1 (configuration not stated)	inactive
COc1cc(C)c(NC(=S)NCCCN2CCOCC2)cc1OC	inconclusive [inhibitor, single point]
